Experimental data reported in article PMC9177701, “Taf2 mediates DNA binding of Taf14” (Nature Communications, 2022).
No constants are given. Whether binding was seen depends on the method and setting. For some of these results: Binding seen in cells or lysates may run through a third protein. Some results given as binding are weak or reduced against the parent protein; the word gives no strength. For some of these results: Where a sequence is shown, tags or fusion partners need not be part of it.

T1: HA-Taf2_(mut_ΔC) (S. cerevisiae) (UniProt P23255)
T1 sequence: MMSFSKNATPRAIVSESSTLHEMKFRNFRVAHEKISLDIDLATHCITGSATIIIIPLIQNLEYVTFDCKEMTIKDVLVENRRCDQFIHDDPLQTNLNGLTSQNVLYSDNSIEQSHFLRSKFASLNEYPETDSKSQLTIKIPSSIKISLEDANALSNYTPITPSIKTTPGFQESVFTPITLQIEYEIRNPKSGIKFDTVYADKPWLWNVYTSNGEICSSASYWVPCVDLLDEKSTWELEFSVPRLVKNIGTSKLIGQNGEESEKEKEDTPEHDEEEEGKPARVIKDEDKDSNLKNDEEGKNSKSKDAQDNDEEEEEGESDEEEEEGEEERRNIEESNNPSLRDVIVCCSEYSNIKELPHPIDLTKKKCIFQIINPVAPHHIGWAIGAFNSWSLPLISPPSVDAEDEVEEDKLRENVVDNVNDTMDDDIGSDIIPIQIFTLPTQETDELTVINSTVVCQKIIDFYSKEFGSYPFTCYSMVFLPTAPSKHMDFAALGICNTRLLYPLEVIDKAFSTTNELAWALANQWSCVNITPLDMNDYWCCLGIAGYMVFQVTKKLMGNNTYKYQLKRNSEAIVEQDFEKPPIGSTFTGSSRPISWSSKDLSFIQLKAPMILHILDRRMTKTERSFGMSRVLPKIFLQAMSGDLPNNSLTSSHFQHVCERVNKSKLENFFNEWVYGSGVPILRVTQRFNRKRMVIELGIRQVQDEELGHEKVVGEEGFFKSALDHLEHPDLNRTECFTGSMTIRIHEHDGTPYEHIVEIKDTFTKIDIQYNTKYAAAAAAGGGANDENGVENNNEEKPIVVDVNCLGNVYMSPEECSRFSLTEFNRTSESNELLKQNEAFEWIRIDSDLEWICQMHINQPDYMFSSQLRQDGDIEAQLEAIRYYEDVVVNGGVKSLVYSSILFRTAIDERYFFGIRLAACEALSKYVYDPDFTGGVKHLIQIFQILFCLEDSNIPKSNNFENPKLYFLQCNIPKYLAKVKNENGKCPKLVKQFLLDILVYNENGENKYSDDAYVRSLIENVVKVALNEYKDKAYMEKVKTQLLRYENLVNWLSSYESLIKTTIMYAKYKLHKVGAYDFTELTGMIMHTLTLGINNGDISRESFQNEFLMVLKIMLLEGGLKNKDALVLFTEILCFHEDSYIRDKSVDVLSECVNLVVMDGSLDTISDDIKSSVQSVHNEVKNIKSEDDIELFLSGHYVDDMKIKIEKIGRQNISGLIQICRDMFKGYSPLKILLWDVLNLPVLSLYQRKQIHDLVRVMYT

T2: Taf14FL (full-length Taf14, aa 1–244) (S. cerevisiae, UniProt P35189 1-244)
T2 construct: Taf14 (transcription initiation factor subunit 14), S. cerevisiae, aa 1–244, a 244-residue protein; In the EMSAs (functional rows) GST-Taf14 or Taf14 proteins were used; source: E. coli Rosetta-2 (DE3) pLysS, purified (SEC for cross-linking; 15N-labeled for NMR)
T2 sequence (looked up): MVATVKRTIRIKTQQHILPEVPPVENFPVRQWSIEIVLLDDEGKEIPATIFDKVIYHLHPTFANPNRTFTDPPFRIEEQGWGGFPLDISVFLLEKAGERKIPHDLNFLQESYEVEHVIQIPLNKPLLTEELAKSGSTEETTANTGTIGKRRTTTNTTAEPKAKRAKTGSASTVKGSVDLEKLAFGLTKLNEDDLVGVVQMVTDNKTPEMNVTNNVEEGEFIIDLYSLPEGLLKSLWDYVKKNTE


Tests used:
[1] = target: T1, HA-Taf2_(mut_ΔC) (S. cerevisiae); test: co-IP; 2 mg soluble protein extract of pseudodiploid yeast, anti-HA 12CA5 mAb with 50 ng/μl ethidium bromide, 4 °C 2 h, protein A-Sepharose; blots with anti-HA and anti-Taf polyclonal antibodies
[2] = target: Taf14_(YEATS) (YEATS domain of Taf14, aa 1–137) (S. cerevisiae) (UniProt P35189); test: NMR titration; 1H,15N HSQC of 0.1–0.3 mM uniformly 15N-labeled Taf14 protein, unlabeled peptide added; 298 K; 50 mM Tris-HCl pH 6.6–7.5, 150 mM NaCl, 0–5 mM DTT or 0.2 mM TCEP, or 1x PBS pH 6.6–7.5; both purified
[3] = target: T2, Taf14FL (full-length Taf14, aa 1–244); test: cross-linking; DSSO cross-linking with mass spectrometry; 1 mM SEC purified Taf14FL with 10.8 mM Taf2CT peptide, 2.5 mM DSSO, 25 mM Hepes pH 7.5, 150 mM NaCl, 1 h at 23 °C; both purified

binding [1]	Molecule	further results
no binding	Taf14 (endogenous, yeast extract) (from UniProt P35189 1-244)	–
–	SRSFMDKIRTK (peptide, UniProt P23255 1392-1402) [Taf2_(CT(V1397D)) peptide (aa 1392–1402)]	binding [2]: no binding
binds	Taf8 (protein, UniProt Q03750 1-510) MTSKTSESGTGTQSTIVQLRNLPDLTEISHLEIDAPVVEILKKTVLFQLNSLNICISNFALDELVNLVTVQMDGMFRNLHNLTLLQRRSQASQADLKLLLREFNLDAPSLYQQFQASEFIKSKHSTEYEKLMSWSSLAALPHNEEDEEDELNNIEEQQNEINVLLPPSNPLEKQIPSWLPNFPPDHTYKFTPEFNHPITDLKTIKKEIVKESQESEKALLNLNKSLSHISSASNTPQPPGLDDEDAIEQQLEIWGNALEERKPTITEKSFNENNIEQYAKYRVELARERVTKFEVNQLKRTKNPFLKISETLYLPESPHQSHKTIQKTIELQFRKSMTLFMHNLPKVQKLKKEKIRMAKEERAKSLKRRQEELISQRTKREQDEGHDLELLLNNEHARDAADDTTTPNALNNSTIVINTNAEDEDDDINLFGILGSSEDENEMSSMPAENLVAESEPPTMTAQDTTNTTPVAHNTTNIDATTSHSPHSTPNENAPTSPPADIATDHDITM	–
binds	Taf3 (protein, UniProt Q12297 1-353) MTTNNDFYFALLRISILQLLKAQGFDRARPSLVDVMTDLYAKFLSLLASEVSSIAQARCDQDDTIALQDITLALENLGIVKPTNVLDVYDENSELSSSRGMEKFKDWCIYSTQLTDARITALPTVELLQSEEKESDPLSAIPDYLNQLLQNKGAKQKLETKNRKTELIEDLINNNGLDDWIKLVIARQRINMIERASKKESQNVPALPHIAGYKSSILSRHHHTTITNEDRMPSAMTPRDEDALTEIQENPFVTSKLPIMRKENRLENITLSFEDEELESLGEVEGPNQKSQENNNEESFKENNKSLTESPHGDDRDISMFQFDSNVDTKWAEQEDMDSTFQRRTSLDYGGYF	–
–	SRSFMVKDRTK (peptide, UniProt P23255 1392-1402) [Taf2_(CT(I1399D)) peptide (aa 1392–1402)]	binding [2]: no binding
binds	Taf7 (protein, UniProt Q05021 1-590) MAVIRIKKPRGPGEKDQPLEGEPKLKRIRIKTKVTDEDIKPKPKLKINLKKKKESADGKEKKNSLKLKLNLKKNEEPVKKIHKAPKLRLKPIRIPGEAYDSEASDIEDDPLIESGVILRILPDIQLEFVKNSLESGDYSGISIKWKNERHAVVTINDVMYGAILVDLPTVIEVNKSVDRKNLLKTFDVSQMLLCIRPIQEEEEVYALEAPDTEDLVVKHFEGIEDEIWENKETFLKGYNGAPLSDMEAKHLKEIALKGYDYKHGISPPLYNVRNRRFRRKMDPNEIDYVEKVVDMLLKQDKQAEEVSYDLVDKSELQARQERVSSWENFKEEPGEPLSRPALKKEEIHTIASAVGKQGAEEEGEEGMEEEEEEDLDLGAAFESEEEGSGAEGDKEQQQEEVGDEVDQDTGGEDDDDDDDGDIEAAGGESESDDEKDENRQHTELLADELNELETTLAHTKHKLSKATNPLLKSRFIDSIKKLEKEAELKRKQLQQTEDSVQKQHQHRSDAETANNVEEEEEEEEEEEEEDEVDEDEEDDEENDEDEDNVHEREHIQENKVVRELDEAPAEETLDQNDLDMMMLFGAEGDE	–
–	SRSFMVKIRTKN (peptide, UniProt P23255 1392-1403) [Taf2CT peptide (aa 1392–1403)]	binding [3]: binds
